“And” between values parts separate entries of the source, which are not always exact repeats. Identical values can stand only once. Inconclusive results, whose numbers are uncertain, are shown with a selection of clear calls. For some of these results: Potencies beside an inconclusive call are fits to weak or partial responses and may not hold up. The source made the active and inactive calls. Unless noted, calls come from the whole dose curve; as a rule, active = well fitted curve in the direction sought with a large enough effect in the repeat runs; inconclusive = weak or mixed curves; inactive = no such curve, though single readings can be large; an effect the other way counts as inactive or inconclusive.
Legend:
Aromatase (Homo sapiens) = Aromatase (Homo sapiens) (UniProt P11511); assay: qHTS assay to identify aromatase inhibitors (AID 743083); note: nearly all actives have a fitted effect of over 55% in size; note: potency is the fitted concentration of half-maximal effect; for activity, negative = inhibition: % is set by controls: 0 for no effect and ±100 for the full control effect
Sequence of UniProt P11511 (P11511 whole entry, looked up): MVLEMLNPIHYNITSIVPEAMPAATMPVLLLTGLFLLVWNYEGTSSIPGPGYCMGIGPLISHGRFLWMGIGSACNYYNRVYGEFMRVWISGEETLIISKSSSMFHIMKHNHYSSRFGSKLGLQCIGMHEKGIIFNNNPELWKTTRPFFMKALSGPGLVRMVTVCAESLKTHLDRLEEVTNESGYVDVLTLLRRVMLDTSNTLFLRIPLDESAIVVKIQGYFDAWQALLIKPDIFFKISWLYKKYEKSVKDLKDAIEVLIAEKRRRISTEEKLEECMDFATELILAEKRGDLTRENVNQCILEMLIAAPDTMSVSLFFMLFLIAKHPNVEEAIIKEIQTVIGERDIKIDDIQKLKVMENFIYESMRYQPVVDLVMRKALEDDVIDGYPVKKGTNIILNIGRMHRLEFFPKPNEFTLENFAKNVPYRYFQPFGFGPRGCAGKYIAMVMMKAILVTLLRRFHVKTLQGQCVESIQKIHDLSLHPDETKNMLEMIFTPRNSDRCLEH

[1] = qHTS assay to identify small molecule that activate the aryl hydrocarbon receptor (AhR) signaling pathway - cell viability counter screen (AID 743086); note: potency is the fitted concentration of half-maximal effect; nearly all actives have a fitted effect of over 45% in size
Method in brief: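 Cytotoxicity counter screen: CellTiter-Fluor signal (30 min, 37 C) in 4000 HepG2 cells/well carrying the DRE-luciferase reporter, following 24 h compound exposure at 37 C.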

[2] = qHTS assay for small molecule disruptors of the mitochondrial membrane potential - cell viability (AID 720634; calls by dose curve;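 note: human HepG2 liver cancer cells; % is set by controls: 0 for no effect and ±100 for the full control effect; nearly all actives have a fitted effect of over 20% in size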)
Method in brief: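 ATP-based luminescent viability readout (CellTiter-Glo, 30 min, room temperature) in HepG2 cells multiplexed with the m-MPI membrane potential dye; compound exposure lasted 1 hr at 37 C.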

[3] = biological target: Estrogen receptor (Homo sapiens) (UniProt P03372); assay: qHTS assay to identify small molecule agonists of the estrogen receptor alpha (ER-alpha) signaling pathway (AID 743075; calls by dose curve;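 note: HEK293 GripTite cells with ER-alpha and UAS-driven beta-lactamase reporter; potency is the fitted concentration of half-maximal effect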); settings: HEK293 ER-alpha-UAS-bla, beta-lactamase FRET ratio, 18 h; activation: at 70.1 µM (top of the series)
Sequence of UniProt P03372 (P03372 whole entry, looked up): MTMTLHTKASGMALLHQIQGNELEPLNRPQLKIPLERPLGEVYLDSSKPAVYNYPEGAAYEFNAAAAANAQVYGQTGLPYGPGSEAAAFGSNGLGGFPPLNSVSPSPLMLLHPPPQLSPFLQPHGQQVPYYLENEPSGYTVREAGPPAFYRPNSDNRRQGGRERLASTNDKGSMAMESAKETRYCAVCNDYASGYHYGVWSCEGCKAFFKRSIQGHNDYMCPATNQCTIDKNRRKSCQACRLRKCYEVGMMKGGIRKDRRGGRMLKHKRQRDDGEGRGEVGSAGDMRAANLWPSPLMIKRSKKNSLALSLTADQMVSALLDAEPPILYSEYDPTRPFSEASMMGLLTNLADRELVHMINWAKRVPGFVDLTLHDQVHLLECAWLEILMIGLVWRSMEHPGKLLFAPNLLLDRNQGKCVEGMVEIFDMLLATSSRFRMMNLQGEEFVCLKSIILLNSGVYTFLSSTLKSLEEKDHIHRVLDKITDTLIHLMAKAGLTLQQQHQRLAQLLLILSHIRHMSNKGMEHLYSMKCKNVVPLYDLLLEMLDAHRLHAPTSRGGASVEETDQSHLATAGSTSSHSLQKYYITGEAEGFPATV

[4] = biological target: Peroxisome proliferator-activated receptor gamma (Homo sapiens) (UniProt P37231); assay: qHTS assay to identify small molecule antagonists of the peroxisome proliferator-activated receptor gamma (PPARg) signaling pathway (AID 743191; calls by dose curve; note: nearly all actives have a fitted effect of over 30% in size; note: potency is the fitted concentration of half-maximal effect; for ratio activity, negative = inhibition: % is set by controls: 0 for no effect and ±100 for the full control effect); settings: HEK293H PPARg-UAS-bla, beta-lactamase ratio, antagonist, 17 h; ratio activity, negative = inhibition: at 62.6 µM (top of the series) unless noted
Sequence of UniProt P37231 (P37231 whole entry, looked up): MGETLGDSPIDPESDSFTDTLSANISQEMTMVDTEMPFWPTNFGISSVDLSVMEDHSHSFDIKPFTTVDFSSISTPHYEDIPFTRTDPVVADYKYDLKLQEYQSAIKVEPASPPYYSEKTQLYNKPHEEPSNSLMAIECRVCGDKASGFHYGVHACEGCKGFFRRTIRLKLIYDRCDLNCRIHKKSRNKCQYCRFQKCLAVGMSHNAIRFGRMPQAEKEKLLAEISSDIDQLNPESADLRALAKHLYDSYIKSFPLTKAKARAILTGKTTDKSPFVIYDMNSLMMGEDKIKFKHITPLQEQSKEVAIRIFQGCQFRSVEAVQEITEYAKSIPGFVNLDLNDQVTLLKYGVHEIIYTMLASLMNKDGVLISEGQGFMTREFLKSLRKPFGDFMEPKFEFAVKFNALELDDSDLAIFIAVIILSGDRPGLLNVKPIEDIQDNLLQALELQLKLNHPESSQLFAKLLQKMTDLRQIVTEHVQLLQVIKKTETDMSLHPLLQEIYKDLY
Method in brief: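 Beta-lactamase reporter under UAS control in HEK293H PPARg-bla cells; compound treatment 17 h at 37C. Read-out: fluorescence intensity after 1 h room-temperature incubation with LiveBLAzer B/G FRET substrate.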

[5] = qHTS assay for small molecule agonists of the antioxidant response element (ARE) signaling pathway (AID 743202; active = well fitted activation curve with a large enough effect in the signal ratio in the repeat runs, not every such curve was filed as active; inconclusive = weak or mixed curves, or effect the other way; inactive = no such curve, though single readings can be large or run the other way; the % refers to the signal ratio; note: potency is the fitted concentration of half-maximal effect; for activation: % is set by controls: 0 for no effect and ±100 for the full control effect); settings: HepG2 ARE-bla reporter, beta-lactamase FRET, 16 h; activation: at 73.3 µM (top of the series) unless noted
Method in brief: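 After 16 hours of compound treatment at 37 C, HepG2 cells with a stably integrated ARE-driven beta-lactamase reporter were loaded 2 hours at room temperature with LiveBLAzer B/G FRET substrate and fluorescence intensity measured.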

[6] = biological target: Cytochrome P450 1A2 (Homo sapiens) (UniProt P05177); assay: Cytochrome P450 Family 1 Subfamily A Member 2 (CYP1A2) small molecule antagonists: luciferase reporter qHTS assay (AID 1671199); note: nearly all actives have a fitted effect of over 50% in size; note: potency is the fitted concentration of half-maximal effect
Sequence of UniProt P05177 (P05177 whole entry, looked up): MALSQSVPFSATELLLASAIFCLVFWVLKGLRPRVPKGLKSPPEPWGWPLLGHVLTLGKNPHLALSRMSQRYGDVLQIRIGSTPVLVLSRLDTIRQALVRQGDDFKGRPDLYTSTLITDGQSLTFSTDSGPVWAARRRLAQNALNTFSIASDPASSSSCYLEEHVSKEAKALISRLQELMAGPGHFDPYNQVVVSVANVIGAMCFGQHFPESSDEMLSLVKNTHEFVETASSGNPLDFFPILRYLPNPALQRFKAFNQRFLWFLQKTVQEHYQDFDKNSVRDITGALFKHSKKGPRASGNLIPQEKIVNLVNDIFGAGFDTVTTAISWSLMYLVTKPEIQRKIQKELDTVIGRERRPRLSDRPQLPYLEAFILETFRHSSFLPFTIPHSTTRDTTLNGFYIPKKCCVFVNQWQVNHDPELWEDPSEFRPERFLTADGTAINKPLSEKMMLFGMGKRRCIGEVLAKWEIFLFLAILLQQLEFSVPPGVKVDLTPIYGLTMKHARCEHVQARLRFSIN
Method in brief: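 Steps: enzyme-substrate mix dispensed; test compounds and furafylline control pinned in; 10 min room temperature; NADPH regeneration solution added, 1 h; reaction stopped with luciferin detection reagent; luminescence read after 20 min.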

[7] = biological target: Cytochrome P450 2C19 (Homo sapiens) (UniProt P33261); assay: Cytochrome P450 Family 2 Subfamily C Member 19 (CYP2C19) small molecule antagonists: luciferase reporter qHTS assay (AID 1671197); note: nearly all actives have a fitted effect of over 65% in size; note: potency is the fitted concentration of half-maximal effect
Sequence of UniProt P33261 (P33261 whole entry, looked up): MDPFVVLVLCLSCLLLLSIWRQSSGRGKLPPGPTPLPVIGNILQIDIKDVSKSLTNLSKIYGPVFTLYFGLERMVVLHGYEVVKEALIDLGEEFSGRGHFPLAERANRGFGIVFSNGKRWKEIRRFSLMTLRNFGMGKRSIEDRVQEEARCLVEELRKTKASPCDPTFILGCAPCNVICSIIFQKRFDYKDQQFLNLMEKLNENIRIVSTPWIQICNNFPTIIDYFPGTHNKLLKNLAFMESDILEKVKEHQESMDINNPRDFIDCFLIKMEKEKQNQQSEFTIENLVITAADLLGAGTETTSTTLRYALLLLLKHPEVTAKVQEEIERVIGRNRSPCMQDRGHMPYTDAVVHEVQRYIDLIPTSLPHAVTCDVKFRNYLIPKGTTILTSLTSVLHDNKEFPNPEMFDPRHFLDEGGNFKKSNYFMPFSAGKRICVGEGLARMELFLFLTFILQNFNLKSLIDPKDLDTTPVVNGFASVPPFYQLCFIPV
Method in brief: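 Luminescent readout of CYP2C19 activity: luciferin product detected 20 min after adding detection reagent. Before that, compound and enzyme-substrate mix preincubated 10 min at room temperature; NADPH-regenerating system started a 1 h, 37C reaction. Ketoconazole as positive control.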

[8] = qHTS assay to identify small molecule antagonists of the thyroid receptor (TR) signaling pathway (AID 743065); note: potency is the fitted concentration of half-maximal effect; nearly all actives have a fitted effect of over 55% in size
Method in brief: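 Antagonism measured as loss of luciferase signal in GH3 cells stably carrying a TRE-luciferase reporter, co-treated with compound and T3 (1 nM final) for 23.5 h at 37 C. Viability was read in the same well by CellTiter-Fluor.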

[9] = biological target: Aryl hydrocarbon receptor (Homo sapiens) (UniProt P35869); assay: qHTS assay to identify small molecule that activate the aryl hydrocarbon receptor (AhR) signaling pathway (AID 743085); note: potency is the fitted concentration of half-maximal effect; nearly all actives have a fitted effect of over 15% in size
Sequence of UniProt P35869 (P35869 whole entry, looked up): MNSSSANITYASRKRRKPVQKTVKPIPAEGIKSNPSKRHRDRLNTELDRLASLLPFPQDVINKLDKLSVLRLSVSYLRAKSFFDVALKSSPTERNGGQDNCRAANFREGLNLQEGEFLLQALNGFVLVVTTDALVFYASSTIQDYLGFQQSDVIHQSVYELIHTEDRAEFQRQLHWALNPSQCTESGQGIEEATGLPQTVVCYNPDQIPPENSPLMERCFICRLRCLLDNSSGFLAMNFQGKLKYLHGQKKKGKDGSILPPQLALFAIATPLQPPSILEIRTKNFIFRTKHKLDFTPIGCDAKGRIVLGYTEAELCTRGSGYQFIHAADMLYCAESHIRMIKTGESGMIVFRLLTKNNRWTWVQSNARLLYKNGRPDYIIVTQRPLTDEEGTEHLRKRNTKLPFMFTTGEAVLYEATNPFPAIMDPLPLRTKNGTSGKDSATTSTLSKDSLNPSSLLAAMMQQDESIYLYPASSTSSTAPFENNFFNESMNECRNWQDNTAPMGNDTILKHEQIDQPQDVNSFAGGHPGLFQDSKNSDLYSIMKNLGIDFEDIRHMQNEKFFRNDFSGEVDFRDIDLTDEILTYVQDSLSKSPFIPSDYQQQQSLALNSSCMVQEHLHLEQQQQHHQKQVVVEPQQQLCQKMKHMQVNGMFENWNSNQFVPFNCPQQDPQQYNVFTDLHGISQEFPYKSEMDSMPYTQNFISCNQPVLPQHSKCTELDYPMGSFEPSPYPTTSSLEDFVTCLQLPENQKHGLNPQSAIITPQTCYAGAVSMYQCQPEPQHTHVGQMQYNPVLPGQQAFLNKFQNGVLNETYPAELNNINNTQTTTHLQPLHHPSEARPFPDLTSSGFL
Method in brief: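 Compounds were tested in HepG2 hepatocellular carcinoma cells harbouring a stably integrated luciferase gene under control of 20 DREs. Increased reporter signal after 24 h treatment at 37C was taken as AhR activation.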

[10] = qHTS assay for small molecules that induce genotoxicity in human embryonic kidney cells expressing luciferase-tagged ATAD5 (AID 651632); note: potency is the fitted concentration of half-maximal effect; nearly all actives have a fitted effect of over 15% in size
Method in brief: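 Quantitative HTS in HEK293T expressing luciferase-tagged ATAD5, whose levels rise upon DNA damage. Exposure ran 16 hr at 37C and 5% CO2, with luminescence read 30 min after Amplite addition at room temperature.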

[11] = biological target: Androgen receptor (Homo sapiens) (UniProt P10275); assay: qHTS assay to identify small molecule antagonists of the androgen receptor (AR) signaling pathway (AID 743035; active = well fitted inhibition curve with a large enough effect in the signal ratio in the repeat runs, not every such curve was filed as active; inconclusive = weak or mixed curves, or effect the other way; inactive = no such curve, though single readings can be large or run the other way; the % refers to the signal ratio; note: % is set by controls: 0 for no effect and ±100 for the full control effect); settings: HEK293 AR-UAS-bla, R1881-stimulated, beta-lactamase FRET, 16 h; activity change, negative = inhibition: at 58.5 µM (top of the series) unless noted
Sequence of UniProt P10275 (P10275 whole entry, looked up): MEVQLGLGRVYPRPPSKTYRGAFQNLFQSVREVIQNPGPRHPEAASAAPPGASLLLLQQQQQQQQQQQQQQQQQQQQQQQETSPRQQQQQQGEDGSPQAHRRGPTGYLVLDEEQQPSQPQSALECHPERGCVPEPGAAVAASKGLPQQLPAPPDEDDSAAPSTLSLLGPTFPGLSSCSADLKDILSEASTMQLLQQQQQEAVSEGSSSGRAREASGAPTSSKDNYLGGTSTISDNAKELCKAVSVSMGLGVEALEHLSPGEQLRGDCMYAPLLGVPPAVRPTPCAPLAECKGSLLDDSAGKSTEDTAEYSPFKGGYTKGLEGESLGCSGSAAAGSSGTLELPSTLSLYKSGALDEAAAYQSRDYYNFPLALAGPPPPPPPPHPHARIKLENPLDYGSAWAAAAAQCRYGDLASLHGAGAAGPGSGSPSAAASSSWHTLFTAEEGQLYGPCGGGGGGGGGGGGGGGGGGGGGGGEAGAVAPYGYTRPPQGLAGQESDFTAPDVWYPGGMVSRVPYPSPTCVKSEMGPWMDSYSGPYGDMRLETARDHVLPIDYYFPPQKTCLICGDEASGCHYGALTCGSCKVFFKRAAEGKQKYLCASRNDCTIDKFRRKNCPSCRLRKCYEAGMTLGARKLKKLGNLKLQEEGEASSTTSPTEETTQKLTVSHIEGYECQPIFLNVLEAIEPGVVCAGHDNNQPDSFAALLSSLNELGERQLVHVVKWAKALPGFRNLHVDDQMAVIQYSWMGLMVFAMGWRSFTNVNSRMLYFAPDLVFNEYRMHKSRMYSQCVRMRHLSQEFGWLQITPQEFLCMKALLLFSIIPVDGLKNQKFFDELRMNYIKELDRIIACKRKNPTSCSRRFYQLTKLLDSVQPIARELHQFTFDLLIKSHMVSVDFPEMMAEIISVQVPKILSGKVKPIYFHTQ
Method in brief: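 Quantitative HTS of the Tox21 10K library used HEK293 AR-UAS-bla cells stimulated with R1881 alongside compound for 16 h at 37C, followed by beta-lactamase FRET detection (LiveBLAzer B/G, 2 h, RT).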
Tags give direction and shape of the fitted curve or compound fluorescence and quenching.

## CCN(CC)CCCC(C)Nc1cc(/C=C/c2ccccc2Cl)nc2cc(Cl)ccc12 (configuration not stated)
Aromatase (Homo sapiens)
  Potency: inconclusive: 33.5 µM [inhibitor, single point]
[1]
  Potency: inconclusive: 33.5 µM

## CCCCCCCCO
[2]
  Potency: inactive
[3]
  Potency: inconclusive: 0.781 µM [falling, full curve]
[4]
  Potency: inactive and inconclusive: 287 nM [activator, full curve, poor fit]
[5]
  activation: inconclusive: 1.37% [at 94.8 µM]
[6]
  Potency: inconclusive: 63.7 µM [inhibitor, partial curve, poor fit]

## NS(=O)(=O)c1cc2c(cc1Cl)NC(C(Cl)Cl)NS2(=O)=O (configuration not stated)
Aromatase (Homo sapiens)
  Potency: inactive
[4]
  ratio activity, negative = inhibition: inconclusive: 3.12%
[5]
  Potency: inconclusive: 29.8 µM [rising, single point]
[7]
  Potency: inconclusive: 1.55 µM [inhibitor, single point]
[6]
  Potency: inactive

## CCCC(=O)Nc1c(I)cc(I)c(CC(CC)C(=O)O)c1I (configuration not stated)
[8]
  Potency: inconclusive: 18.8 µM [inhibitor, partial curve, poor fit]
[9]
  Potency: inconclusive: 9.44 µM [activator, full curve, poor fit]

## CC(=O)Nc1ccc(NC(=S)NC(=O)c2ccc(C(C)(C)C)cc2)cc1
[10]
  Potency: inconclusive: 1.33 µM [activator, full curve, poor fit]
[9]
  Potency: active: 1.5 µM

## COc1cc2c(cc1OC)[C@@H](c1ccccc1)CN(C)CC2
[11]
  Potency: inactive
[8]
  Potency: inconclusive: 26.6 µM [inhibitor, partial curve, poor fit]

## Cc1ccc(N)nc1
[5]
  Potency: inactive
[7]
  Potency: inactive
[6]
  Potency: inconclusive: 38.6 µM [inhibitor, partial curve]

## COC(C)(OC)OC
[6]
  Potency: inconclusive: 62.5 µM [inhibitor, partial curve, poor fit]

From PubChem BioAssay (Tox21)
